Reference: PMC4336329 (PLoS ONE, 2015)
The campaign covered roughly 310,000 compounds. About 2,200 (0.71%) showed an effect of 50% or more. Effects have a minus sign here. The list shows a part of the results.

Target: human ether-à-go-go-related gene (hERG) potassium channel (human, UniProt Q12809)
Test: primary screen, population patch clamp on CHO cells stably expressing hERG

Chain of human ether-à-go-go-related gene (hERG) potassium channel (Q12809 whole entry, looked up): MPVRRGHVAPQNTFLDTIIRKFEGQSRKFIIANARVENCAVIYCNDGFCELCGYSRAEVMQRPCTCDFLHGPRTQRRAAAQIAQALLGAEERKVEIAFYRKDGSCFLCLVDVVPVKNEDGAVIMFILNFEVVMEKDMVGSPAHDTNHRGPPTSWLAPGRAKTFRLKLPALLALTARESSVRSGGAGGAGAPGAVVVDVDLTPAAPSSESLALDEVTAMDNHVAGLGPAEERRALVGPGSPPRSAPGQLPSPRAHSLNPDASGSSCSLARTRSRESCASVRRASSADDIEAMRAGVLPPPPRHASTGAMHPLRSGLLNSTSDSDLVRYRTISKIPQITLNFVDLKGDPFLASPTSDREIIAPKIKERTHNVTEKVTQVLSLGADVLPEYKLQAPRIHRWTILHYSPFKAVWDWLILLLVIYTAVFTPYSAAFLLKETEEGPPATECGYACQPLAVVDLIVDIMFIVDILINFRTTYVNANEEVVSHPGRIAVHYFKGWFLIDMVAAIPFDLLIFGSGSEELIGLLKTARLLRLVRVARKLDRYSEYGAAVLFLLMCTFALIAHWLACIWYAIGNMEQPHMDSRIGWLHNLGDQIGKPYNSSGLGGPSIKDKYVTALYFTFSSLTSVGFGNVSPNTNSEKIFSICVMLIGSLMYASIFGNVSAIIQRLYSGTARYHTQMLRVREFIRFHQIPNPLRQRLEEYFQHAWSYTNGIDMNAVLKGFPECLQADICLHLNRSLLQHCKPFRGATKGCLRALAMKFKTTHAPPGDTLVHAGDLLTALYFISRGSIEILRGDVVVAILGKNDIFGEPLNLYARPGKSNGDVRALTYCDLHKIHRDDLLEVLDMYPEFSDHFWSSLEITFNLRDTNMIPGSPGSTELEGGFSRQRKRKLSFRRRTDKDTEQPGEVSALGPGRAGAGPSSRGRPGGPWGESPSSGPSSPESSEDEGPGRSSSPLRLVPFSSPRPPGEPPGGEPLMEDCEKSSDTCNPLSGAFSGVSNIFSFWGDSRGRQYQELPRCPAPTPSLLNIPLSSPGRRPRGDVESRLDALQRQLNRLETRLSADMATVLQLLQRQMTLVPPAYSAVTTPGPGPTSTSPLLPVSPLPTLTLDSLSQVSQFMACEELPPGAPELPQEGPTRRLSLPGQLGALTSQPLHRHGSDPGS

SMILES | hERG current change (%, negative = inhibition) at 1uM [%]
CCNC(=S)N1CCc2cc(OC)c(OC)cc2C1COc1ccccc1OC (centres unmarked) | 1.26
COC(=O)c1c(NC(=O)CSc2nnnn2-c2ccc3c(c2)OCO3)sc(C)c1C | 15.9
COc1ccc(Nc2nc3ccccc3nc2C)cc1 | -1.84
Fc1ccc(NC(=S)N2CCCN(c3ccc(C(F)(F)F)cn3)CC2)c(F)c1 | 14
O=C(CC1C(=O)NCCN1CC1CCCCC1)NCc1cccc(F)c1F (centres unmarked) | 9.88
CCOc1ccccc1NC(=O)CSc1nnc2ccc(-c3ccccn3)nn12 | 11
O=C(NC1CCCc2c1cnn2-c1ccc(F)cc1F)c1cnccn1 (centres unmarked) | -3.32
CCc1c(C)sc(NC(=O)c2cccs2)c1C(N)=O | 11.1
CC(C)(C)n1nnnc1CN1CCN2CCCC2C1 (centres unmarked) | 2.6
COc1ccccc1C1(CC(=O)N2CCCCC2)CCOC(C(C)C)C1 (centres unmarked) | 6.44
CCCCSc1nnc(C)c(=O)[nH]1 | 8.76
CCN1C(=O)C(NC(C)=O)c2cc(Br)ccc21 (centres unmarked) | -5.16
COc1ccccc1C(=O)NCCC(=O)NC1=NCCS1 | 12
CCc1ccc(-c2cc(C(F)(F)F)n3nc(C(=O)Nc4c(C)nn(Cc5ccc(F)cc5)c4C)cc3n2)s1 | 5.94
CN1CCN(Cc2cc(Cl)c3cccnc3c2OC(=O)c2cccs2)CC1 | -17.3
COc1ccc(NC(=O)NNC(=O)c2ccc3ccccc3c2)cc1OC | 10.5
COc1ccc(NC(=O)c2ccc(NCCCN3CCOCC3)c([N+](=O)[O-])c2)cc1 | 4.25
Cc1[nH]nc2c1C1(CCC(c3ccccc3)CC1)C(C#N)=C(N)O2 (centres unmarked) | 13.7
Cc1cc(Cl)c(S(=O)(=O)NCC2CCCO2)cc1OCC(=O)NC1CCCCC1 (centres unmarked) | -10.8
CCN(CC)C(=O)CC(c1ccc(F)cc1)c1ccc(OC)cc1 (centres unmarked) | 4.96
O=C(Nc1ccc(Cl)cn1)c1ccccc1F | 8.1
C=CCNC(=O)c1ccc(-c2nc(-c3ccccc3)cs2)cc1 | 1.23
COc1ccc(Oc2nnc(C)c3ccccc23)cc1 | 5.36

SMILES | hERG current change (%, negative = inhibition) at 1uM [%]
CC(C)CCN(C(=O)COc1ccc(C#N)cc1)c1c(N)n(Cc2ccccc2)c(=O)[nH]c1=O | 8.82
CCOC(=O)C1(c2ccccc2)CCN(CCC(=O)Nc2ccc(C(=O)OC)cc2)CC1 | -8.16
Cc1ccc(S(=O)(=O)N(CC(=O)N/N=C/c2ccco2)Cc2ccccc2)cc1 | 6.15
CC(=O)O[C@]1(c2ccccc2)CCN(C)[C@H]2CCCC[C@@H]21.Cl | 17.6
COC(=O)CN1C(=O)N/C(=C/c2cc(Cl)c(OC)c(OC)c2)C1=O | 3.77
CCCc1[nH]nc2c1C(CCC)C(C#N)=C(N)O2 (centres unmarked) | 3.08
CCCc1cc(C(=O)N2CCCC(N3CCN(c4ccccc4F)CC3)C2)n(C)n1 (centres unmarked) | -1.55
O=c1c(Cc2ccc(F)cc2)c(O)ccn1Cc1ccc(Cl)cc1Cl | 10.3
Cl.O=C(c1ccco1)N(Cc1ccccc1)Cc1ccccn1 | 17.3
CCCC12CN3CC(C)(CN(C1)C3c1ccc(OC(C)C)cc1)C2=O (centres unmarked) | 5.03
O=C(c1ccccc1)c1ccc2nc(-c3ccco3)c(-c3ccco3)nc2c1 | 2.33
CCOc1cc(C(=S)N2CCCCC2)ccc1OCC(=O)NCc1ccccc1 | -1.67
CCOC(=O)c1ccc(-n2c(CC)nc3ccccc3c2=O)cc1 | 4.73
Cc1nn(-c2ccccc2)c(C)c1C(=O)OCC(=O)N(C)c1c(N)n(Cc2ccccc2)c(=O)[nH]c1=O | 2.85
CN(C)C=O.O=C(O)c1cccc(-n2c(/C=C/c3cccc([N+](=O)[O-])c3)nc3ccccc3c2=O)c1 | 14.7
CC(Oc1ccc2c3c(c(=O)oc2c1)CCCC3)C(=O)NCc1cccnc1 (centres unmarked) | 15.8
O=C(CN1C(=O)c2ccccc2S1(=O)=O)NCCc1ccccc1 | 11.9
COc1ccccc1CN1C(=S)SC(C)(C)C1NO (centres unmarked) | -10.5
Cc1cc(OCCCn2cnc3ccccc3c2=O)ccc1[N+](=O)[O-] | 4.63
CC1SCCN1S(=O)(=O)c1ccc2ccccc2c1 (centres unmarked) | 7.89
Cc1cccc(CN2CCC(CNC(=O)Cn3ncc4c([nH]c5ccccc54)c3=O)CC2)c1 | -0.515
CCNC(=O)NC(=O)C(C)OC(=O)c1c(C)nn(Cc2ccccc2)c1Cl (centres unmarked) | 2.25
O=C(C1=C[C@H](c2ccc3c(c2)OCO3)C[C@H](OCc2ccc(CO)cc2)O1)N1CCOCC1 | 9.65

SMILES | hERG current change (%, negative = inhibition) at 1uM [%]
O=C(CNC(=O)c1ccc(S(=O)(=O)N2CCCC2)cc1)N/N=C/c1ccccc1Cl | -1.35
CCCC(C)NC(=O)c1ccc(-c2ccccc2)cc1 (centres unmarked) | 14
CCOc1cc(C2C(C(=O)N3CCOCC3)=C(C)NC3=C2C(=O)CCC3)ccc1O (centres unmarked) | 12.4
COC(=O)c1nn(-c2cccc(Cl)c2)ccc1=O | 7.18
CN1OC(Cn2cc(C#N)c(=O)n(C)c2=O)CC1c1ccccc1 (centres unmarked) | 16.2
O=C(NN1C(=O)C2C3C=CC(C3)C2C1=O)c1ccncc1 (centres unmarked) | -1.02
CC(C)CCn1c(N)c(C(=O)NCc2cccs2)c2nc3ccccc3nc21 | -1.26
OC1CCN(Cc2cccc(Oc3ccccc3)c2)CC1 | 19
O=C(O)Cn1c(SCc2cccc3ccccc23)nc2ccccc21 | 8.15
O=C(Nc1ccccc1C(=O)NC(Cc1ccccc1)C(=O)O)c1ccccc1 (centres unmarked) | 15.6
O=C1CN(C(=O)COC(=O)CCS(=O)(=O)c2ccccc2)c2ccccc2N1 | 15.7
C1=C2C[N+]3(CCCC3)CC2Cc2ccc3ccccc3c21.[Br-] (centres unmarked) | 12.4
CC(SCc1ccccc1)C(=O)NC1CCCC1 (centres unmarked) | 6.51
Cc1nn2c(-c3ccncc3)ccnc2c1Cl | 10.9
Cc1ccc2c(CSc3nc4ccccc4c(=O)n3CCCO)cc(=O)oc2c1C | 18.4
Clc1ccc2nc(CSc3nc4ccccc4o3)cn2c1 | 2.36
O=C1CCCCC1C(Nc1ccc(Br)cc1)c1ccccc1 (centres unmarked) | 8.17
CCCCNC(=O)c1cc2c(-c3ccc(Cl)cc3)nn(C)c2s1 | 5.97
Cn1c(SCC(=O)NC(C)(C)C)nc(O)cc1=O | 10.3
CC[N+](C)(C)c1cccc(O)c1.[Cl-] | 5.79
COc1ccc(CCNc2oc(COc3ccccc3Cl)nc2C#N)cc1OC | 1.91
CCC1Oc2ccc(C)cc2N(CC(=O)NCc2cccc(OC)c2)C1=O (centres unmarked) | 1.17
COc1cc(C(=O)NCc2ccco2)cc(OC)c1OC | 14.3

SMILES | hERG current change (%, negative = inhibition) at 1uM [%]
CCCNC(=O)COc1ccccc1[N+](=O)[O-] | 0.55
Cn1ccc(O)c(C#N)c1=O | 9.27
CCn1c(Cc2ccccc2)nnc1SCC(=O)c1cccc([N+](=O)[O-])c1 | -0.387
Cc1ccc2c(c1)N(CCCC(=O)NCc1ccc3c(c1)OCO3)C(=O)CO2 | -0.437
OC(COc1ccc2ccccc2c1Cl)CN1CCOCC1 (centres unmarked) | -7.02
CCN1C(=O)[C@H]2[C@@H](c3ccc(C)cc3)N3C(=O)N(c4ccc(C)cc4)C(=O)[C@@]3(Cc3ccc(Cl)cc3)[C@H]2C1=O | 3.87
CCOc1ccccc1N1CCN(CC(=O)NC(C)c2ccccc2)CC1 (centres unmarked) | 9.73
Cc1[nH]c2ccccc2c1/C=N/NC(=O)c1cc(-c2cccs2)[nH]n1 | 8.31
COc1ccc(NS(=O)(=O)c2cc(NC(=O)C3CCCCC3)ccc2N2CCOCC2)cc1 | 9.77
CCC(NC(=S)Nc1ccccc1)C(=O)O (centres unmarked) | 10.8
COc1cccc(N2CCN(S(=O)(=O)c3ccc(-c4cnc(C5CC5)o4)cc3)CC2)c1 | 12.6
COc1ccc(NC(=O)c2sccc2-n2cccc2)cc1 | 13.3
CC1C=CCC2C(=O)N(c3ccccc3OC(=O)c3ccco3)C(=O)C12 (centres unmarked) | 14
COCCOc1cc(NC(=O)c2sccc2Oc2ccc([N+](=O)[O-])cc2F)c(Cl)cc1Cl | 5.82
COc1cccc2c(=O)n(CC(=O)Nc3ccccc3)ccc12 | 8.91
CC(C)Cc1nnc(NC(=O)CSc2nc(-c3ccccc3)cc(=O)[nH]2)s1 | 26
N/C(=N\OC(=O)COc1ccc2ccccc2c1)c1ccncc1 | 12.4
CCc1nnc(NC(=O)CSCc2cc(=O)n3ccsc3n2)s1 | 11.2
Cc1ccc(-n2c(-c3ccc([N+](=O)[O-])cc3)nc3ccccc3c2=O)cc1 | 3.15
CCOC(=O)C1=C(Nc2ccccc2)CC(C)(O)C(C(=O)OCC)C1c1ccccc1 (centres unmarked) | 14
